Measured values taken from ChEMBL document CHEMBL4888484, “Replenishing the malaria drug discovery pipeline: Screening and hit evaluation of the MMV Hit Generation Library 1 (HGL1) against asexual blood stage Plasmodium falciparum ,using a nano luciferase reporter read-out” (2022).
The whole screen tested about 150,000 compounds, of which about 540 (0.36%) showed an effect of 50% or more. The list shows a part of the results.

Test system: Plasmodium falciparum
Experiment: Primary screen in NF54 nanoGlo assay, in single point, at 2uM, 72h; a lower Z score goes with more inhibition
Type: functional, Erythrocyte
Conditions: timepoint 72 hour

| SMILES | % Inhibition | Z score |
| --- | --- | --- |
| Cc1ccc(OCC(O)CN2CCN(CC(O)COc3ccc(C)cc3C)CC2)c(C)c1 (stereo not given) | -14% | 1.78 |
| Cc1ccccc1-n1c(=O)c2sccc2n(CC(=O)N2CCCc3ccccc32)c1=O | -3% | 0.42 |
| CC1CCCC(C)N1C(=O)c1cc(-c2cccs2)nc2ccccc12 (stereo not given) | 1% | -0.1 |
| CN(C)Cc1cc(-c2nc3ccccc3s2)ccc1OCC(=O)NCc1cccc(Cl)c1 | -10% | 1.16 |
| O=C(NCCc1cnn(-c2ccccc2)c1)N1CC[C@H](N2CCOCC2)C1 | -16% | 2.98 |
| Cc1c(-c2nn(-c3nc(C4CC4)cc(C(F)(F)F)n3)c(-c3cnn(C)c3C)c2Cl)cnn1C | 76% | -8.32 |
| NC(=O)c1ccc(OCC2CCOCC2)nc1 | -10% | 1.98 |
| CC(C)N(C)S(=O)(=O)NCc1csc(-c2ccn(C)n2)n1 | -12% | 1.37 |
| Cc1nc(-c2cc3ccccc3nc2N2CCN(C(=O)c3cccs3)CC2)no1 | -10% | 1.45 |
| O=C(C[C@@H]1N=C(O)c2ccccc2NC1=O)Nc1n[nH]c(CCC2CCCC2)n1 | -3% | 0.33 |
| CS(=O)(=O)NC[C@H]1COCCN1C(=O)Nc1cc(F)cc(F)c1F | 5% | -0.62 |
| Cc1c(CNCc2ccc(OC(C)C)cc2)c(C(=O)O)c(C)n1-c1ccc(Cl)cc1 | 4% | -0.58 |
| CC[C@@H]1Oc2ccc(NC(=O)Nc3cccc(Cl)c3)cc2CN(CCc2ccc(OC)c(OC)c2)C1=O | 7% | -1.1 |
| CCN(CCC#N)C(=O)[C@@H](C)CCc1cccc(F)c1 | 0% | 0 |
| COc1ccc(C(=O)NC[C@@H](c2cccnc2)S(=O)(=O)c2ccc(Cl)cc2)cc1OC | -4% | 0.61 |
| O=C(CCn1cncn1)N1CCC[C@H](Cc2nc3ccccc3[nH]2)C1 | 0% | 0.04 |
| CC(C(=O)N1CCc2ccccc21)N1CCOC(CN(C)C)C1 (stereo not given) | -6% | 0.84 |
| CC(NC1CC(=O)N(CC(F)(F)F)C1)c1cnn(C(C)C)c1 (stereo not given) | 4% | -0.72 |
| COc1ccc(NC(=O)C2CCN(c3cc(C)nc4c(-c5ccc(Cl)cc5)c(C)nn34)CC2)cc1 | -7% | 0.92 |
| COC(=O)CN1CCC(Nc2cc(C)cc3cccnc23)CC1 | -17% | 1.43 |

| SMILES | % Inhibition | Z score |
| --- | --- | --- |
| Cc1noc(C)c1CN(C)C(=O)c1cnc2ccccn2c1=O | -7% | 1.33 |
| COc1cccc(CN2CCCN(c3ccc(NC(=O)c4cccs4)cc3)C2=O)c1 | -1% | 0.19 |
| CC(C)(C)c1ccc(C(=O)N2CCCn3nnnc32)s1 | -11% | 1.27 |
| Cc1cc(OCc2ccc(F)cc2)ccn1 | -11% | 1.01 |
| CCN(C(=O)COc1ccccc1Cl)[C@H](c1ccc(C)cc1)c1c[nH]c2ccccc12 | 8% | -1.13 |
| Cc1csc(NC(=O)C2CCN(CCNS(C)(=O)=O)CC2)n1 | 5% | -1.02 |
| COCc1noc([C@@H]2CN(Cc3ccccc3)CCO2)n1 | 5% | -0.72 |
| CCC(C)C(=O)NC(C#N)c1ccccc1C (stereo not given) | -3% | 0.4 |
| COc1cccc(NC(=O)N2CCO[C@@H](CN(CC(C)C)C(=O)c3cccc(OC)c3)C2)c1 | -2% | 0.24 |
| COc1cccc(S(=O)(=O)N2CCc3nnc([C@@H]4C[C@@H](O)CN4C)n3CC2)c1 | -6% | 0.79 |
| CN1CCN(CC(=O)N2CC[C@@H]3OCc4cccc(c4)Oc4ccc(cc4)CCC(=O)N(CCCO)CC(=O)N[C@H]3C2)C1=O | -7% | 1.26 |
| CCCn1cnnc1CN(C)C(=O)c1ccc(-c2cc(N)nc(N)n2)cc1 | -15% | 1.95 |
| Cc1ccsc1CN(Cc1ccc(F)cc1)C(=O)CN(C(C)C)S(=O)(=O)c1cccc2cccnc12 | 0% | 0.06 |
| COc1cccc(C[C@@]2(C3CCN(Cc4cccc5nccnc45)CC3)NC(=O)N(C)C2=O)c1 | -8% | 1.01 |
| Cc1nc(CNC(=O)c2c[nH]c(=O)cn2)oc1-c1ccc(Cl)cc1 | -30% | 3.47 |
| COCCn1nc([C@H]2CCCN(C(=O)c3ccccc3F)C2)n(C2CC2)c1=O | -1% | 0.06 |
| Cc1ccc(CNc2ccc3[nH]nc(C(N)=O)c3c2)cc1C | 25% | -2.85 |
| CCCc1nc(C)c(CNC(=O)c2ccn(C(F)F)n2)s1 | -12% | 1.12 |
| Cc1cccnc1CN(C)Cc1c(CO)cnc(C)c1O | -6% | 0.95 |
| Cc1nc(CN2CC[C@H](c3ccnc(-c4cccc5cccnc45)c3)C2)co1 | 3% | -0.45 |
